# Measured values from PubChem BioAssay AID504333 (National Center for Advancing Translational Sciences (NCATS), 2011).
# The whole screen tested about 360,000 compounds, of which about 16,000 (4.4%) were called active. The inconclusive results got no clear call from the source; some entries with a clear call stand among them for comparison. The call rests on the fitted dose curve; in most records, active means well fitted inhibition curve with a large enough effect; inconclusive means small, poorly fitted or top-dose-only effect; inactive means no such curve, though single readings can be large or run the other way. Potencies beside an inconclusive call are fits to weak or partial responses and may not hold up.
# Biological target: Bromodomain adjacent to zinc finger domain protein 2B (Homo sapiens) (UniProt Q9UIF8)
# Assay: qHTS Assay for Inhibitors of BAZ2B; further: nearly all actives have a fitted effect of over 60% in size
# Details: AlphaScreen BAZ2B-H3K14Ac peptide displacement; series mostly up to 114 µM
# Method in brief: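 BAZ2B 50 nM plus b-H3(5-23)K14Ac 50 nM, PBS pH 7.4/0.01% Tween-20, 30 min RT; compound added (max 110 uM), 30 min RT; streptavidin donor/Ni-chelate acceptor beads 10 ug/mL final, 20 min dark; AlphaScreen read.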
# Potency means the concentration at half of the fitted maximal effect; tags describe the fitted curve by direction and shape.
# UniProt Q9UIF8, sequence (Q9UIF8 whole entry, looked up, the tested form may be a part): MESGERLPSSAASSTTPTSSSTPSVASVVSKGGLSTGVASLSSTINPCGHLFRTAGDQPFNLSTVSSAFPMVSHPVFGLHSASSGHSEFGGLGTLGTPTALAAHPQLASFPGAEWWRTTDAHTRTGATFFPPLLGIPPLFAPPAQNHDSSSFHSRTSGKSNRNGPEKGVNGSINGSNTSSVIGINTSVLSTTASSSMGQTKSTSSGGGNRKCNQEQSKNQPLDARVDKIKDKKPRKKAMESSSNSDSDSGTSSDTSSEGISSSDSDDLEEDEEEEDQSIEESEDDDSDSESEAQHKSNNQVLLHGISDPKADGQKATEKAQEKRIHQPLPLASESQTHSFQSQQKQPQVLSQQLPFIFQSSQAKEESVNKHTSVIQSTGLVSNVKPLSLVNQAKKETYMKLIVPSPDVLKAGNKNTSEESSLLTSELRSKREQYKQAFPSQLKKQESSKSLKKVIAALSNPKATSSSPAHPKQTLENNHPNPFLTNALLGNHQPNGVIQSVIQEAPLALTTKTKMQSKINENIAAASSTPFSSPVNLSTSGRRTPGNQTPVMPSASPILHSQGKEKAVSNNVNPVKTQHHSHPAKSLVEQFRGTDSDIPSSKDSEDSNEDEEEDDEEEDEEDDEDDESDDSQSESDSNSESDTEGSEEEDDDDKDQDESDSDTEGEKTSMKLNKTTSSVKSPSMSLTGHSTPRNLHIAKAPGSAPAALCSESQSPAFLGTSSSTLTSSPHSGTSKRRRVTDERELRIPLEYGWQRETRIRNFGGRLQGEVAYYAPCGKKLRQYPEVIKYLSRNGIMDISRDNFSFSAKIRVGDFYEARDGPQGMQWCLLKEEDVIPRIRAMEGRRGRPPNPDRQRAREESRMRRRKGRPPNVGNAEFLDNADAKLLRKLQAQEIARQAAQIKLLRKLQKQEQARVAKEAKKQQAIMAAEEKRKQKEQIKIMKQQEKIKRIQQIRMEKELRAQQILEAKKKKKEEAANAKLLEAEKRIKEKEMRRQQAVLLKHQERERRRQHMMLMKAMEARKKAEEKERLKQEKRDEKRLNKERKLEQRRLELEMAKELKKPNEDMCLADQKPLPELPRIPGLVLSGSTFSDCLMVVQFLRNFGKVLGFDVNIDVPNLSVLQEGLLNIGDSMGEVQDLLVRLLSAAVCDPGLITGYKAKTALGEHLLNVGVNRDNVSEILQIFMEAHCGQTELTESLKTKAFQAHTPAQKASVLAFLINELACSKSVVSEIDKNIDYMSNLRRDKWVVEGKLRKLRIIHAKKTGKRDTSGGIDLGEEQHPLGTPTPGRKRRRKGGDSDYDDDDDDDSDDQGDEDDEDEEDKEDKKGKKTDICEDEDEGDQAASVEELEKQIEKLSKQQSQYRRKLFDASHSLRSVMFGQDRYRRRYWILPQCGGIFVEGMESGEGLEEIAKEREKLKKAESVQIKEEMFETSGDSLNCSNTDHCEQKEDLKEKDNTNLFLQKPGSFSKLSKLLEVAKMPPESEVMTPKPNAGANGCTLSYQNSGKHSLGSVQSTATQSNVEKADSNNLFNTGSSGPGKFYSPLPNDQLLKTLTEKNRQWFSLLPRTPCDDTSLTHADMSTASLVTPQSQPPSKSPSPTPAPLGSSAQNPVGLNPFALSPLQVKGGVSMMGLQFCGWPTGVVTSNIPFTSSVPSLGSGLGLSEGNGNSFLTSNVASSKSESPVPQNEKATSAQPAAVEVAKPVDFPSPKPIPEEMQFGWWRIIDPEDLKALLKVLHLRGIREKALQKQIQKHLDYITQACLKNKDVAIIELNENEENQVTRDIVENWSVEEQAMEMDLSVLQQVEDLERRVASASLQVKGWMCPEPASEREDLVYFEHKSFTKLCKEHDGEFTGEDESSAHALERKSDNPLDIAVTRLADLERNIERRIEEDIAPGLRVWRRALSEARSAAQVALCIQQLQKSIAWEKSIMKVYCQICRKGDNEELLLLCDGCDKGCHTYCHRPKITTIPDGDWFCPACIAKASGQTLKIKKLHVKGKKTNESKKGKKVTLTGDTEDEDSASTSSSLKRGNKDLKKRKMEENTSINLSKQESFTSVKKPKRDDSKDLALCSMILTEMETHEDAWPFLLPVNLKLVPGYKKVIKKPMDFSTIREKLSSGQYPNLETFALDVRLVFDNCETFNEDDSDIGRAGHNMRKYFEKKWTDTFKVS
row,SMILES,Potency
1,OC1(c2cccc(C(F)(F)F)c2)CCN(Cc2nnnn2CCc2ccccc2)CC1,inactive
2,COc1ccc(C(=O)CSc2nnc(CNc3ccc(F)cc3)o2)cc1,inactive
3,CCN(Cc1ccc(OC)c(F)c1)C(=O)/C=C/c1ccc(S(=O)(=O)N2CCOCC2)cc1,inactive
4,O=C1C2C3C=CC(C3)C2C(=O)N1c1ccc(N2CCN(c3ccccn3)CC2)c([N+](=O)[O-])c1 (configuration not stated),"inconclusive: 44.7 µM [inhibitor, partial curve]"
5,CCc1ccc(-n2c(C)cc(/C=N/NC(=O)c3ccncc3)c2C)cc1,active: 39.8 µM
6,Cc1ccc(CNC(=O)c2sccc2-n2cccc2)cc1,"inconclusive: 70.8 µM [inhibitor, single point]"
7,COc1ccccc1C1CC(c2ccco2)=NN1c1ccccc1 (configuration not stated),"inconclusive: 44.7 µM [inhibitor, partial curve]"
8,O=C(NC1=NCCS1)c1cc(Cl)ccc1Cl,"inconclusive: 89.1 µM [inhibitor, single point]"
9,O=C(Cc1ccc(Cl)cc1Cl)Nc1cccc(S(=O)(=O)Nc2ccccc2F)c1,"inconclusive: 70.8 µM [inhibitor, single point]"
10,O=C(COC(=O)c1nc(Cl)c(Cl)c(Cl)c1Cl)NCc1ccccc1,"inconclusive: 89.1 µM [inhibitor, single point]"
11,CCCCC(=O)NNC(=S)NC(=O)c1ccc([N+](=O)[O-])cc1,"inconclusive: 50.1 µM [inhibitor, partial curve]"
12,CSc1ncc(C(=O)Nc2c(C)cccc2C)c(-c2ccccc2)n1,inactive
13,CCN(CC)CCn1c2ccc(F)cc2c2nc(C)sc21,"inconclusive: 89.1 µM [inhibitor, single point]"
14,CC(NC(=O)Nc1nccs1)(C(F)(F)F)C(F)(F)F,"inconclusive: 7.08 µM [inhibitor, single point]"
15,Cc1ccc(C(=O)N/C(=C/c2ccc(-c3cccc([N+](=O)[O-])c3)o2)C(=O)NCCCN(C)C)cc1,"inconclusive: 50.1 µM [inhibitor, partial curve]"
16,CC(C)c1ccc(N2C(=O)CS(=O)(=O)C23C(=O)N(Cc2cccc(F)c2)c2ccccc23)cc1 (configuration not stated),inactive
17,Cc1nc(N)sc1N=Nc1ccc(Br)cc1,active: 25.1 µM
18,COc1ccccc1/C=C1/SC(=S)N(C(C)C(=O)NC2C=CS(=O)(=O)C2)C1=O (configuration not stated),inactive
19,Cc1ccc(S(=O)(=O)NC(Cc2ccc(Cl)cc2)C(=O)O)cc1 (configuration not stated),inactive
20,Cc1ccc(-n2c(Cc3cccn3C)nnc2SCC(=O)Nc2ccc3c(c2)OCO3)cc1,active: 44.7 µM
21,COc1ccc(CCNC(=O)CCn2cccc2)cc1OC,"inconclusive: 89.1 µM [inhibitor, single point]"
22,CC(C)c1ccc2oc(-c3ccc(NC(=O)c4ncn[nH]4)cc3)nc2c1,active: 35.5 µM
23,Cc1ccc(/C=c2\sc3n(c2=O)CN(c2cccc(Br)c2)CN=3)o1,"inconclusive: 79.4 µM [inhibitor, single point]"
24,CC(=O)c1ccc(N2CCN(c3ccnc4cc(Cl)ccc34)CC2)cc1,"inconclusive: 79.4 µM [inhibitor, single point]"

row,SMILES,Potency
1,Fc1ccccc1COc1ccc(Br)cc1CNCc1cccnc1,"inconclusive: 79.4 µM [inhibitor, partial curve]"
2,COc1ccc(NCC(=O)N/N=C(\C)c2cc3ccccc3o2)cc1,active: 35.5 µM
3,Cn1ncc(N=Cc2ccccc2O)c1C(=O)Nc1ccccc1,"inconclusive: 89.1 µM [inhibitor, single point]"
4,NC(=S)NNC(=O)c1cccc(Br)c1,inactive
5,CSc1ccccc1NC(=O)c1cnc2scc(C)n2c1=O,inactive
6,Cc1cc(/C=c2/sc3nc4ccccc4n3c2=O)c(C)n1-c1ccccn1,inactive
7,Oc1ccc(-c2cn3ccccc3n2)cc1O,active: 79.4 µM
8,COc1ccc(NC2CCCN(C(=O)COc3ccc(C)cc3)C2)cc1 (configuration not stated),"inconclusive: 56.2 µM [inhibitor, partial curve]"
9,Cc1ccc(CN(C(=O)c2ccccc2)c2ccccn2)o1,"inconclusive: 79.4 µM [inhibitor, single point]"
10,COc1ccc(OC)c(NC(=O)NCCc2c[nH]c3ccccc23)c1,"inconclusive: 39.8 µM [inhibitor, partial curve]"
11,O=C(O)CCCCn1c(SCC(=O)Nc2ccccc2C(F)(F)F)nc2ccsc2c1=O,inactive
12,CSc1nnc(C(C)(C)C)c(=O)n1/N=C/c1c(O)ccc2ccccc12,inactive
13,Cc1ccccc1C(=O)NCC(c1ccco1)N1CCc2ccccc21 (configuration not stated),"inconclusive: 50.1 µM [inhibitor, partial curve]"
14,CN(C)CC/C=C1/c2ccccc2Sc2c(O)cc(Cl)cc21,"inconclusive: 79.4 µM [inhibitor, single point]"
15,NC1=NC(=O)/C(=C/c2cn(Cc3ccccc3)c3ccccc23)S1,"inconclusive: 44.7 µM [inhibitor, partial curve]"
16,CC(C(=O)Nc1ccc(O)c(C(=O)O)c1)N1C(=O)/C(=C/c2cccs2)SC1=S (configuration not stated),"inconclusive: 50.1 µM [inhibitor, partial curve]"
17,COc1ccc(N=C(C)C2=C(O)c3ccccc3C2=O)cc1,"inconclusive: 70.8 µM [inhibitor, single point]"
18,Cc1c(C)n(C(=O)CN2CCN(c3ccccn3)CC2)c2ccccc12,"inconclusive: 79.4 µM [inhibitor, single point]"
19,CC(C)C(=O)OCc1cn(-c2ccc(Cl)c(Cl)c2)nn1,inactive
20,COc1ccc(N2CCN(C(=O)C(=O)c3c(C)[nH]c4ccccc34)CC2)cc1,"inconclusive: 44.7 µM [inhibitor, partial curve]"
21,S=c1[nH]nc(-c2ccco2)n1/N=C/c1cccc(Cl)c1Cl,active: 50.1 µM
22,CC(=O)N1CCN(c2ccc(NC(=O)c3ccccc3C)cc2)CC1,"inconclusive: 89.1 µM [inhibitor, single point]"
23,CN(CC(=O)Nc1cccc(F)c1)C(=O)CSc1ccccc1,"inconclusive: 89.1 µM [inhibitor, single point]"
